# Laboratory results from PubChem BioAssay AID624417 (National Center for Advancing Translational Sciences (NCATS), 2012).
# “And” between values parts separate entries of the source, which are not always exact repeats. Equal values may be shown once. Hit rate of the full screen: of about 410,000 compounds, about 6,400 (1.6%) were called active. Inconclusive results, whose numbers are uncertain, are shown with a selection of clear calls. The call rests on the fitted dose curve; in most records, active means well fitted inhibition curve with a large enough effect; inconclusive means small, poorly fitted or top-dose-only effect; inactive means no such curve, though single readings can be large or run the other way. Potencies of inconclusive entries are doubtful fits and often do not repeat.
# Molecular target: Glucagon-like peptide 1 receptor (Homo sapiens) (UniProt P43220)
# Assay: qHTS of GLP-1 Receptor Inverse Agonists (Inhibition Mode); further: nearly all actives have a fitted effect of over 55% in size
# Conditions: HEK293 GLP-1R CRE-luciferase, luminescence, 24 h, GLP-1R form is constitutively active; series mostly up to 38.3 µM
# Method in brief: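 HEK293 cells stably co-expressing a cAMP-responsive luciferase reporter and constitutively active GLP-1R were seeded, incubated 12 h, then exposed to compounds for 24 h at 37 C. Luminescence was read 12 min after detection reagent; inverse agonists lower signal.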
# Potency means the concentration at half of the fitted maximal effect; tags describe the fitted curve by direction and shape.
# Sequence of UniProt P43220 (P43220 whole entry, looked up): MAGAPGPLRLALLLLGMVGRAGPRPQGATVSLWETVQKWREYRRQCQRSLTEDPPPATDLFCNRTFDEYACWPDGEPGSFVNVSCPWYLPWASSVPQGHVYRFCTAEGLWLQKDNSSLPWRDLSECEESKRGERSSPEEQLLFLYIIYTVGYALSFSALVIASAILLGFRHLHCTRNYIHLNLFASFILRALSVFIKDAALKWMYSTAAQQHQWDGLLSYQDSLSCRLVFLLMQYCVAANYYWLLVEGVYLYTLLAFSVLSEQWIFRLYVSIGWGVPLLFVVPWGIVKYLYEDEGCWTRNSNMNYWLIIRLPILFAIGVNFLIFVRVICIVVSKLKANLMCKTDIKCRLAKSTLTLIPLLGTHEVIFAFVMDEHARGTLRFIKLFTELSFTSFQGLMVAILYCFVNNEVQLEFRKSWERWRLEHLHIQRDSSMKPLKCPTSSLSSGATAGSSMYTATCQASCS
row,Compound,Potency
1,O=C(CC(=O)c1ccccc1)CC(O)(C=Cc1ccccc1)c1ccccc1 (stereo not given),"inconclusive: 20 µM [inhibitor, single point]"
2,COc1ccccc1N(CC(=O)NCCSCc1cccc(Cl)c1)S(C)(=O)=O,"inconclusive: 20 µM [inhibitor, single point]"
3,O=C(C1CCC(Cn2c(=O)c3sccc3n(Cc3ccccc3F)c2=O)CC1)N1CCCCC1 (stereo not given),"inconclusive: 28.2 µM [inhibitor, single point]"
4,Cc1cccc2c1Sc1ccc(Cl)cc1CC2N1CCNCC1 (stereo not given),"inconclusive: 12.6 µM [inhibitor, partial curve, poor fit]"
5,COC(=O)C1=C(C)N(Cc2ccccc2)C(=NCc2cc(OC)c(OC)c(OC)c2)N[C@H]1c1cccc(F)c1,"inconclusive: 10 µM [inhibitor, partial curve]"
6,C[C@H](CO)N1C[C@H](C)[C@H](CN(C)C(=O)c2ccccc2)OCc2ccccc2-c2c(n(C)c3ccccc23)C1=O,"inconclusive: 10 µM [inhibitor, partial curve, poor fit]"
7,CCC(C)c1ccc(NC(=O)c2c([N+](=O)[O-])cnn2CC)cc1 (stereo not given),"inconclusive: 31.6 µM [inhibitor, partial curve, poor fit]"
8,Cc1ccc(S(=O)(=O)N2[C@@H](Cc3ccccc3)CO[C@H]2CC(=O)c2cccc3ccccc23)cc1,"inconclusive: 14.1 µM [inhibitor, single point]"
9,O=C(c1ccccc1)N1CCC(=O)N1c1ccccc1,inactive
10,O=C(Nc1cccc(Br)c1)c1ccc(Cl)c(S(=O)(=O)N2CCOCC2)c1,"inconclusive: 11.2 µM [inhibitor, partial curve, poor fit]"
11,Cc1sc(NC(=O)CN2CCOCC2)nc1-c1ccc2c(c1)CCN2S(=O)(=O)c1ccccc1,"inconclusive: 20 µM [inhibitor, single point]"
12,CCc1c(C)sc2c1CCN(C(=O)Nc1ccc(F)c(Cl)c1)C2c1ccc(F)cc1 (stereo not given),"inconclusive: 11.2 µM [inhibitor, partial curve, poor fit]"
13,OC1(c2cccc(C(F)(F)F)c2)CCN(c2ncnc3c2[nH]c2ccccc23)CC1,"inconclusive: 11.2 µM [inhibitor, partial curve, poor fit]"
14,Cc1ccc(/C(N)=N/OC(=O)N2c3ccccc3Sc3ccccc32)cc1,"inconclusive: 28.2 µM [inhibitor, single point]"
15,O=C(Nc1ccccc1)C1CCN(S(=O)(=O)c2ccc3[nH]c4c(c3c2)CCCCC4)CC1,"inconclusive: 10 µM [inhibitor, partial curve]"
16,Cc1ccc(-c2csc(NC(=O)CSc3nc4ccccc4c(=O)n3CCCN(C)C)n2)cc1,"inconclusive: 8.91 µM [inhibitor, single point]"
17,CCN(CC)C(=O)c1csc(Nc2cccc3ccccc23)n1,"inconclusive: 10 µM [inhibitor, partial curve, poor fit]"
18,CC1CCN(c2oc(/C=C/c3ccc(F)cc3)nc2C#N)CC1,inactive
19,O=c1c(OCc2ccccc2)cccn1Cc1ccccc1,"inconclusive: 8.91 µM [inhibitor, single point]"
20,O=C(NC(=S)Nc1ccccc1N1CCOCC1)c1ccccc1F,"inconclusive: 28.2 µM [inhibitor, single point]"

row,Compound,Potency
1,CCCOc1ccc(C(=O)Nc2nc(C)c(Cc3ccc4c(c3)OCO4)s2)cc1,"inconclusive: 28.2 µM [inhibitor, single point]"
2,COCCCNc1nc2c(c(=O)n(Cc3cccc(Br)c3)c(=O)n2C)n1C,"inconclusive: 28.2 µM [inhibitor, single point]"
3,COc1ccccc1C(CNC(=O)c1ccc(NS(=O)(=O)c2ccc(F)c(C)c2)cc1)N(C)C (stereo not given),"inconclusive: 28.2 µM [inhibitor, single point]"
4,COc1cccc(-c2nc(CS(=O)(=O)CC(=O)Nc3cccc(C)c3C)c(C)o2)c1,"inconclusive: 10 µM [inhibitor, single point]"
5,O=C(NC(=O)c1ccccc1O)c1ccc(C(F)(F)F)cc1,inactive
6,COc1ccccc1-n1c(-c2ccc(Cl)cc2)c[nH]c1=S,inactive
7,CCCCCCCCCn1c2c(c(=N)c3c1CCC3)CCC2,"inconclusive: 11.2 µM [inhibitor, partial curve, poor fit]"
8,Cc1ccc2c(CC(=O)NCc3ccco3)coc2c1C,"inconclusive: 3.16 µM [inhibitor, full curve, poor fit]"
9,CCN(CC)CCn1c2c(c(SCC(=O)Nc3nc4ccccc4s3)nc1=O)CCCC2,"inconclusive: 7.94 µM [inhibitor, partial curve, poor fit]"
10,CC[n+]1c(/C=C/c2ccc(OC(C)=O)c(OC)c2)ccc2ccccc21,"inconclusive: 28.2 µM [inhibitor, single point]"
11,CCC(=O)Oc1ccc2ccccc2c1CNC(=O)c1ccccc1,"inconclusive: 14.1 µM [inhibitor, single point]"
12,CC1(C)CC(=O)C2=C(C1)c1c(ccc3ccccc13)NC2c1ccc(Br)o1 (stereo not given),"inconclusive: 6.31 µM [inhibitor, partial curve, poor fit]"
13,CCOC(=O)c1sc(N2N=C(C)C(N=Nc3cccc(C)c3)C2=O)nc1C (stereo not given),inactive
14,COc1ccccc1C(=O)Nc1nnc(-c2ccc3c(c2)CCCC3)o1,"inconclusive: 28.2 µM [inhibitor, single point]"
15,COc1ccccc1NC(=O)C(C)OC(=O)CCNS(=O)(=O)c1cccc(C(F)(F)F)c1 (stereo not given),"inconclusive: 8.91 µM [inhibitor, partial curve]"
16,Cc1ccc(C(C)C)c(OCCSc2nc3ccccc3n2CC(=O)O)c1,"inconclusive: 12.6 µM [inhibitor, single point]"
17,O=C(Cn1c(=O)sc2ccccc21)Nc1ccc(S(=O)(=O)N2CCCCC2)cc1,"inconclusive: 15.8 µM [inhibitor, partial curve, poor fit]"
18,COc1cc(/C=N/NC(=O)c2cc(-c3ccccc3)sc2N)cc(OC)c1OC,"inconclusive: 8.91 µM [inhibitor, partial curve, poor fit]"
19,COC(=O)/C=C/COc1ccccc1[N+](=O)[O-],"inconclusive: 31.6 µM [inhibitor, single point]"
20,COc1cc(NC(=O)Nc2ccccc2)c(OC)cc1NC(=O)CN1CCCCC1,"inconclusive: 6.31 µM [inhibitor, partial curve, poor fit]"

row,Compound,Potency
1,O=S(=O)(NCC(Nc1ccc(Cl)cc1)c1ccccc1)c1ccccc1 (stereo not given),"inconclusive: 2.24 µM [inhibitor, full curve] and inconclusive: 10 µM [inhibitor, partial curve, poor fit]"
2,CCN(CCCNC(=O)c1cc(Nc2ccccc2OC)nc2ccccc12)c1cccc(C)c1,"inconclusive: 3.98 µM [inhibitor, full curve, poor fit]"
3,CCOC(=O)C1(P(=O)(c2ccc(Cl)cc2)c2ccc(Cl)cc2)CCC1,"inconclusive: 28.2 µM [inhibitor, partial curve, poor fit]"
4,Cc1cc(C)c(S(=O)(=O)N(CC(=O)O)C2CCCCC2)c(C)c1,"inconclusive: 7.08 µM [inhibitor, partial curve, poor fit]"
5,Cc1cc(SCC(=O)c2ccc(Cl)cc2)nc(=O)[nH]1,"inconclusive: 7.94 µM [inhibitor, partial curve, poor fit]"
6,CC(C)(C)C(=O)Nc1cc(C(F)(F)F)ccc1N1CCOCC1,inactive
7,COc1ccc(-n2ncc3c2CC(C)(C)CC3NC(=O)c2ccnn2C)cc1 (stereo not given),"inconclusive: 3.55 µM [inhibitor, partial curve, poor fit]"
8,CCN(CC)c1ccc(/C=C/C(=O)c2ccc(Br)cc2)cc1,"inconclusive: 7.94 µM [inhibitor, partial curve, poor fit]"
9,Cc1noc(C)c1CSCC(=O)Nc1nc(-c2ccc(F)c(F)c2)cs1,"inconclusive: 28.2 µM [inhibitor, single point]"
10,C=CCn1c(=N)n(CC(=O)c2ccccc2)c2ccccc21,"inconclusive: 28.2 µM [inhibitor, single point]"
11,O=C(Nc1ccc(F)cc1F)c1ccccc1-c1ccccc1,"inconclusive: 12.6 µM [inhibitor, single point]"
12,COc1cc(SC)ccc1C(=O)NCCOc1ccc(C)c(C)c1,"inconclusive: 10 µM [inhibitor, partial curve, poor fit]"
13,Cc1cc(C)cc(NC(=S)N2CCN(c3ncc(C(F)(F)F)cc3Cl)CC2)c1,inactive
14,Cc1ccc(NC(=O)c2ccccc2NS(=O)(=O)c2ccc(Cl)s2)cc1,"inconclusive: 2.51 µM [inhibitor, partial curve, poor fit]"
15,Cc1ccccc1C(=O)OCCN(C)Cc1ccccc1,"inconclusive: 22.4 µM [inhibitor, partial curve, poor fit]"
16,COC(=O)c1ccc(NC(=O)CN2C(=O)c3cccc4cccc2c34)cc1,inactive
17,COC(=O)c1ccc(CN2CCC(CO)(Cc3ccccc3Cl)CC2)cc1,"inconclusive: 14.1 µM [inhibitor, partial curve, poor fit]"
18,COc1cccc(C(=O)OCC(=O)N2CCC(Cc3ccccc3)CC2)c1OC,"inconclusive: 28.2 µM [inhibitor, single point]"
19,COc1ccc2cc3[n+](cc2c1O)CCc1cc2c(cc1-3)OCO2,inactive
20,Cc1ccc(NC(c2ccc(Cl)cc2)c2nnc(-c3cccc(F)c3)o2)cc1C (stereo not given),inactive
